Values joined by “and” are separate entries in the source; they are usually repeats but may differ in a detail not shown here. Equal entries are not always repeated. Out of some 420,000 compounds screened, about 64,000 (15%) were called active. The shares of active, inactive and inconclusive entries below differ from those in the screen. Calls come from the whole dose curve; as a rule, active = well fitted inhibition curve with a large enough effect; inconclusive = small, poorly fitted or top-dose-only effect; inactive = flat fitted curve, though single readings scatter. Potencies beside an inconclusive call are fits to weak or partial responses and may not hold up.
test: qHTS for Inhibitors of human tyrosyl-DNA phosphodiesterase 1 (TDP1): qHTS in cells in absence of CPT; details: DT40 Tdp1-/- hTDP1 cells, no CPT, ATP luminescence, 48 h; activity change, negative = growth inhibition: at 46.2 µM (top of the series); note: nearly all actives have a fitted effect of over 55% in size
Outline: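 DT40 Tdp1-/-;hTDP1 cells, no CPT (DMSO vehicle only), 400 cells/well; compounds pin-transferred; ≥48 hr, 37 °C; CellTiter-Glo 30 min RT dark, luminescence read.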
% is set by controls: 0 for no effect and ±100 for the full control effect; potency is the fitted concentration of half-maximal effect; tags give direction and shape of the fitted curve.

SMILES	Potency	activity change, negative = growth inhibition
CCOC(=O)CCC(NC(=O)CCCCCCCCC(=O)NC(CCC(=O)OCC)C(=O)OCC)C(=O)OCC (configuration not stated)	inconclusive: 16.4 µM [inhibitor, single point]	
O=C(C1CC(=O)N(c2ccc(F)c(Cl)c2)C1)N1CCOCC1 (configuration not stated)	inactive	
N/C(=N\OC(=O)CCC1CCCC1)c1ccccn1	inactive	
Cc1ccc(CN2c3ccccc3S(=O)(=O)c3ccccc32)cc1	inconclusive: 29.1 µM [inhibitor, single point]	
COc1ccc(CNC(=O)CC2N=C3c4ccccc4N=C(SCC(=O)Nc4ccc(N(C)C)cc4)N3C2=O)cc1 (configuration not stated)		inconclusive: -31.7% [inhibitor]
CC(C)CC(=O)Nc1nnc(SCC(=O)Nc2ccc(F)cc2)s1	inconclusive: 29.1 µM [inhibitor, single point]	
Cc1cccc(C(=O)N/N=C/c2ccncc2)c1	inactive	
C1CN(c2nc3nonc3nc2N2C[C@H]3CC[C@H]2C3)CCS1	inactive	
CCc1ccc(NC(=O)CSc2nc3ncc(Br)cc3[nH]2)cc1	inactive	
Nc1nc(SCc2ccccc2)c2ncn(C3CCCO3)c2n1 (configuration not stated)	inconclusive: 25.9 µM [inhibitor, single point]	
COc1ccc(S(=O)(=O)N2CCCCCC2)cc1Br	inactive	
CCOC(=O)/C(=C\c1c[nH]c2ccccc12)NC(C)=O	inconclusive: 18.4 µM [inhibitor, partial curve, poor fit]	
COc1ccc(-c2c3c(=O)n(C)c(=O)n(C)c3c3c(-c4ccc(C)cc4)nc4ccccc4n23)cc1	inactive	
CCOC(=O)C1=C(C)NC(=S)NC1c1ccc(-c2ccc(Cl)cc2)o1 (configuration not stated)	inconclusive: 23.1 µM [inhibitor, single point]	
CC1=NN(c2cccc(C(=O)O)c2)C(=O)/C1=C\C=C\c1ccco1	inconclusive: 29.1 µM [inhibitor, single point]	
CCOCCCNC(=S)N1CCC(C(=O)c2ccc(C)cc2)CC1	inconclusive: 32.6 µM [inhibitor, single point]	
CC1CCCCN1C(=O)c1c([N+](=O)[O-])cnn1C (configuration not stated)	inactive	
CCCn1c(O)c(N=NC(=O)CNC(=O)/C=C/c2ccc(OC)cc2)c2ccccc21	inconclusive: 2.59 µM [inhibitor, partial curve]	
CN1OC[C@@H]2C(=O)N3CCc4c([nH]c5ccccc45)[C@@H]3C[C@@H]21	inactive	
Cc1ccc(S(=O)(=O)Nc2cc3c(cc2N2CCOCC2)n(C)c(=O)n3C)c(C)c1	inconclusive: 29.1 µM [inhibitor, single point]	
Cc1ccc(Nc2nc(C(=O)NCc3ccco3)cs2)cc1	inconclusive: 23.1 µM [inhibitor, partial curve]	
Cc1ccc(C)n1-c1nnc(N2CCC(C(=O)NCCCN3CCN(C)CC3)CC2)s1		inconclusive: -31.5% [inhibitor]
Cn1c(=O)c2c(nc(CN3CCCCC3)n2Cc2c(F)cccc2Cl)n(C)c1=O	active: 23.1 µM	
COCCNC(=S)N(Cc1cccnc1)Cc1ccc(OC)c(OC)c1	inactive	

SMILES	Potency	activity change, negative = growth inhibition
Cc1ccc(C2SCC(=O)N2Cc2ccccc2)cc1 (configuration not stated)	inactive	
CCCCc1cc(=O)oc2cc(OC(C)C(=O)NCc3ccccn3)c(Cl)cc12 (configuration not stated)	inconclusive: 16.4 µM [inhibitor, partial curve]	
Cc1cccc(Cn2c(SCCO)nc3c2c(=O)n(C)c(=O)n3C)c1	active: 14.6 µM	
CCN(c1ccc(NC(=O)COC(=O)c2ccc(S(=O)(=O)N3CCCC3)cc2)cc1)C(C)C	inactive	
CCOC(=O)C1=C(O)/C(=C/c2cc(OC)c(OC)c(OC)c2)N=C1C	inactive	
COc1cc(OC)cc(-c2cc3ccccc3c(=O)o2)c1	inconclusive: 23.1 µM [inhibitor, single point]	
CCN(CC)CCNC(=O)c1ccc(NC(=O)c2cccc(S(=O)(=O)N3CCc4ccccc43)c2)cc1	inconclusive: 29.1 µM [inhibitor, single point]	
Cc1ccc(CSc2nc(=O)c3c(n2C)NC(=O)CC3c2ccc(OC(C)C)cc2)cc1 (configuration not stated)	inactive	
Nn1c(SCc2ccccc2)nnc1C1CCCCC1	inactive	
CSc1nnc(C(C)(C)C)c(=O)n1/N=C/c1ccccc1	inconclusive: 29.1 µM [inhibitor, single point]	
COc1ccc(N2CC(C(=O)OCC(=O)Nc3cccc(C)c3)CC2=O)cc1 (configuration not stated)	inactive	
Cc1coc2c(C)c3oc(=O)c(CCC(=O)NCCCn4ccnc4)c(C)c3cc12	inconclusive: 23.1 µM [inhibitor, single point]	
O=C1/C(=C/c2ccc(O)c(O)c2)SC(=S)N1Nc1ccccc1	inconclusive: 16.4 µM [inhibitor, single point]	
CCc1nnc(NC(=O)CSCc2cc(=O)c3ccc(C)cc3[nH]2)s1	inactive	
Cc1ccc(S(=O)(=O)NNC(=O)Nc2ccc(Cl)c(Cl)c2)cc1	active: 16.4 µM	
CCOC(=O)CN1C(=O)S/C(=C/C=C/c2ccc(N(C)C)cc2)C1=O	inconclusive: 25.9 µM [inhibitor, single point]	
O=C(CSc1cn(Cc2cccc(F)c2)c2ccccc12)NCc1ccc(F)cc1	inactive	
FC(F)(F)c1cc(CCN2C(=S)NC[C@@H]2Cc2ccccc2)cc(C(F)(F)F)c1	inconclusive: 29.1 µM [inhibitor, single point]	
CCCN(CCc1ccccc1)C1CCc2c(O)cccc2C1 (configuration not stated)	active: 11.6 µM	
CCNc1nc(NCC)nc(N/N=C/c2ccc(N(C)C)cc2)n1	inconclusive: 29.1 µM [inhibitor, single point]	
COc1cc(NC(=O)c2cnn(-c3cccc(F)c3)c2C2CCNCC2)cc(OC)c1OC	inactive	
CC1CN(C/C(=N\O)C23CC4CC(CC(C4)C2)C3)CC(C)O1 (configuration not stated)	inconclusive: 29.1 µM [inhibitor, single point]	
Cc1ccc(C(=O)Nc2ccncc2)c(Cl)c1	inconclusive: 6.51 µM [inhibitor, partial curve]	
Cc1ccc(S(=O)(=O)CCSc2nc(C)cc(C)c2C#N)cc1	inconclusive: 29.1 µM [inhibitor, single point]	

SMILES	Potency	activity change, negative = growth inhibition
O=C(NCCN1CCOCC1)c1ccc(/C=C2\Sc3ccccc3N(Cc3ccc(F)cc3)C2=O)cc1	inconclusive: 25.9 µM [inhibitor, single point]	
COc1cc(N=Nc2ccccc2C(=O)O)ccc1O	inactive	
c1ccc(CSCc2cn3ccccc3n2)cc1	inconclusive: 25.9 µM [inhibitor, single point]	
COc1ccc(S(=O)(=O)N2CCCCC2)cc1NC(=O)CCc1cc(OC)c(OC)c(OC)c1	inconclusive: 23.1 µM [inhibitor, partial curve]	
C/C(=N\Nc1ncc(Cl)cc1Cl)c1ccc2c(c1)OCO2	inactive	
CCC1OC23CCCCC2C(C#N)(C(=N)O3)C1(C#N)C#N (configuration not stated)	active: 13 µM	
COc1cccc(C(=O)Nc2nnc(-c3cccs3)o2)c1	inconclusive: 20.6 µM [inhibitor, single point]	
C=CCN(Cc1cccs1)C(=O)CN1CCN(S(=O)(=O)c2ccc3c(c2)OCCCO3)CC1	inconclusive: 29.1 µM [inhibitor, single point]	
COc1cc2c(cc1NC(=O)COC(=O)CNC(=O)c1ccccc1)oc1ccccc12	inactive	
Cc1cccc(NC(=O)C2C(c3ccccc3)C2(Cl)Cl)c1C (configuration not stated)	inconclusive: 23.1 µM [inhibitor, single point]	
Cn1nc(C(=O)Nc2ccc(S(=O)(=O)NCc3ccco3)cc2)c2ccccc2c1=O	inconclusive: 25.9 µM [inhibitor, single point]	
COc1cc(C(C)=O)ccc1Oc1cc(NN2CCCCC2)c([N+](=O)[O-])cc1[N+](=O)[O-]	inconclusive: 29.1 µM [inhibitor, single point]	
NC(N)=N/N=C/c1ccc(Cl)c(Cl)c1	active: 16.4 µM	
COc1cccc(C(=O)CSc2nnnn2C)c1	inactive	
COc1cc2sc3cc(NCCCN4CCOCC4)ccc3c(=O)c2cc1OC	inconclusive: 25.9 µM [inhibitor, single point]	
O=c1c2[nH]c3cccc(Cl)c3c2ncn1CC1CCCO1 (configuration not stated)	inactive	
COC(=O)C1CCCCN1Cc1ccc2c(c1)CN(Cc1cn[nH]c1-c1ccc(F)cc1)CCO2 (configuration not stated)	inconclusive: 18.4 µM [inhibitor, single point]	
CCCN(CCC)CCNC(=O)c1cc2c(-c3ccccc3F)nn(C)c2s1	inconclusive: 18.4 µM [inhibitor, single point] and inconclusive: 14.6 µM [inhibitor, partial curve]	
Cc1oc(-c2cccc(F)c2)nc1CN(Cc1ccccc1)C[C@@H]1CCC(=O)N1	inconclusive: 29.1 µM [inhibitor, single point]	
CCC(C)NC(=O)CC(NS(=O)(=O)c1ccc(C)cc1)c1ccc(OC)cc1 (configuration not stated)	inactive	
COc1ccc(NC(=O)CN(Cc2ccccc2)S(=O)(=O)c2ccc3nc(C)sc3c2)cc1	inconclusive: 18.4 µM [inhibitor, single point]	
Cc1cc(OCC(=O)N(Cc2ccco2)C2CCS(=O)(=O)C2)ccc1Cl (configuration not stated)	inconclusive: 29.1 µM [inhibitor, partial curve]	
CSc1nc2sc3c(c2c(=O)n1C1CCCCC1)CCN(C)C3	inconclusive: 20.6 µM [inhibitor, single point]	
O=C(Nc1cc(C(F)(F)F)ccc1N1CCOCC1)c1ccc2ccccc2n1	inconclusive: 20.6 µM [inhibitor, single point]	
